According to article PMC5481654, “Identification of the anti-mycobacterial functional properties of piperidinol derivatives” (British journal of pharmacology, 2017):
Values after ≈ are worked out from the molar mass of the structure shown.

System: M. smegmatis resistant mutants
Experiment: microbe, parasite or virus in culture
Assay type: cell-based
Details: for MIC: Mycolicibacterium smegmatis, mean ± SEM
[1] = mutant resistant to Compound 1, isolate 1
[2] = mutant resistant to Compound 1, isolate 3
[3] = mutant resistant to Compound 2, isolate 1
[4] = mutant resistant to Compound 2, isolate 2

Row | SMILES | susceptibility of the resistant mutants | MIC [1] [µg/mL] | MIC [2] [µg/mL] | MIC [3] [µg/mL] | MIC [4] [µg/mL]
1 | CO[C@H]1/C=C/O[C@@]2(C)Oc3c(C)c(O)c4c(O)c(c(/C=N/N5CCN(C)CC5)c(O)c4c3C2=O)NC(=O)/C(C)=C\C=C\[C@H](C)[C@H](O)[C@@H](C)[C@@H](O)[C@@H](C)[C@H](OC(C)=O)[C@@H]1C [Rifampicin, reference compound] | fully susceptible | 5 (≈ 6.08 µM) | 10 (≈ 12.2 µM) | 10 (≈ 12.2 µM) | –
2 | CN(CCC(=O)c1ccccc1)CCC(=O)c1ccccc1 [Compound 2, 3,3′-(methylazanediyl)bis(1-phenylpropan-1-one)] | – | 156 (≈ 528 µM) | 375 ± 62.5 (≈ 1270 µM) | 375 ± 62.5 (≈ 1270 µM) | 281 ± 31.3 (≈ 952 µM)
3 | NNC(=O)c1ccncc1 [isoniazid] | fully susceptible | 25 (≈ 182 µM) | – | – | –
4 | CN1CCC(O)(c2ccccc2)C(C(=O)c2ccccc2)C1 (centres unmarked) [Compound 1] | – | 375 ± 62.5 (≈ 1270 µM) | 375 ± 62.5 (≈ 1270 µM) | 172 ± 38.2 (≈ 581 µM) | 266 ± 46.9 (≈ 899 µM)
